Experimental data taken from patent publication US20180015075A1, “METHODS AND COMPOSITIONS FOR TREATMENT OF VENOUS MALFORMATION” (Children's Hospital Medical Center, priority 2016, published 2018).
Where a name gives a salt, the structure may show the parent alone. Starred links: 1 amine or outer side, 2 acyl side, 3 side chain; linkers in the order of their positions; H or OH if unused. Positions of bridges follow the written chain, without caps; N, C: chain ends. Non-standard residues stand in square brackets, D forms with d. Residues, ends and D or L forms follow the SMILES beside them. Chains are numbered I, II in the order given. Actinocin(9to1) = Cc1c2oc3c(C)ccc(C(=O)[*:1])c3nc-2c(C(=O)[*:2])c(N)c1=O; NMeV = CN[C@H](C(=O)O)C(C)C; Sar = CNCC(=O)O

These compounds were tested on HUVEC (non-transfected) (assay: cells). Settings: Homo sapiens, read-out: Average proliferation Inhibition rate (%) HUVEC.

| Compound | inhibition at 20 µM [%] |
| --- | --- |
| CC(C)C[C@H](NC(=O)[C@H](CCc1ccccc1)NC(=O)CN1CCOCC1)C(=O)N[C@@H](Cc1ccccc1)C(=O)N[C@@H](CC(C)C)C(=O)[C@@]1(C)CO1 [Carfilzomib] | 69.7 |
| Nc1nc(Cl)nc2c1ncn2[C@@H]1O[C@H](CO)[C@@H](O)[C@@H]1F [Clofarabine] | 55.8 |
| N#Cc1ccc(C(c2ccc(C#N)cc2)n2cncn2)cc1 [Letrozole] | 4.31 |
| S=c1nc[nH]c2nc[nH]c12 [Mercaptopurine] | 6.1 |
| COc1nc(N)nc2c1ncn2[C@@H]1O[C@H](CO)[C@@H](O)[C@@H]1O [Nelarabine] | 4.75 |
| OC[C@H]1O[C@@H](n2cnc3c2NC=NC[C@H]3O)C[C@@H]1O [Pentostatin] | -3.07 |
| O=C(CCBr)N1CCN(C(=O)CCBr)CC1 [Pipobroman] | 15.8 |
| O=C(/C=C/c1cccc(S(=O)(=O)Nc2ccccc2)c1)NO [Belinostat] | 79.4 |
| COc1cccc2c1C(=O)c1c(O)c3c(c(O)c1C2=O)C[C@@](O)(C(=O)CO)C[C@@H]3O[C@H]1C[C@H](N)[C@@H](O)[C@H](C)O1 [Epirubicin hydrochloride] | 74.4 |
| O=P1(NCCCl)OCCCN1CCCl (centres unmarked) [Ifosfamide] | -3.81 |
| CNC(=O)c1ccc(N2C(=S)N(c3ccc(C#N)c(C(F)(F)F)c3)C(=O)C2(C)C)cc1F [Enzalutamide] | 82.9 |
| CNC(=O)c1cc(Oc2ccc(NC(=O)Nc3ccc(Cl)c(C(F)(F)F)c3)cc2)ccn1 [Sorafenib] | 13.2 |
| CC(=O)O[C@H]1C(=O)[C@@]2(C)[C@H]([C@H](OC(=O)c3ccccc3)[C@]3(O)C[C@H](OC(=O)[C@H](O)[C@@H](NC(=O)c4ccccc4)c4ccccc4)C(C)=C1C3(C)C)[C@]1(OC(C)=O)CO[C@@H]1C[C@@H]2O [Paclitaxel] | 48 |
| CC1=C(/C=C/C(C)=C/C=C/C(C)=C/C(=O)O)C(C)(C)CCC1 [Tretinoin] | -3.57 |
| CC(C)C[C@H](NC(=O)[C@H](Cc1ccccc1)NC(=O)c1cnccn1)B(O)O [Bortezomib] | 81 |
| CC[C@@]1(O)C(=O)OCc2c1cc1n(c2=O)Cc2cc3c(CN(C)C)c(O)ccc3nc2-1 [Topotecan hydrochloride] | 77.5 |
| Cc1c2oc3c(C)ccc(C(=O)N[C@@H]4C(=O)N[C@H](C(C)C)C(=O)N5CCC[C@H]5C(=O)N(C)CC(=O)N(C)[C@@H](C(C)C)C(=O)O[C@@H]4C)c3nc-2c(C(=O)N[C@@H]2C(=O)N[C@H](C(C)C)C(=O)N3CCC[C@H]3C(=O)N(C)CC(=O)N(C)[C@@H](C(C)C)C(=O)O[C@@H]2C)c(N)c1=O [Dactinomycin] (I: T[dV]P[Sar][NMeV] / II: T[dV]P[Sar][NMeV]; ester I:1-I:C, II:1-II:C; linker I:N-II:N via Actinocin(9to1)) | 67 |
| Cc1ccc(Nc2nccc(N(C)c3ccc4c(C)n(C)nc4c3)n2)cc1S(N)(=O)=O [Pazopanib hydrochloride] | 4.01 |
| CCc1c2c(nc3ccc(OC(=O)N4CCC(N5CCCCC5)CC4)cc13)-c1cc3c(c(=O)n1C2)COC(=O)[C@]3(O)CC [Irinotecan hydrochloride] | 44 |
| Nc1ncn([C@@H]2O[C@H](CO)[C@@H](O)[C@H]2O)c(=O)n1 [Azacitidine] | 44.3 |
| Nc1cccc2c1CN(C1CCC(=O)NC1=O)C2=O (centres unmarked) [Lenalidomide] | 1.27 |
| C=C1C[C@@H]2[C@H](CC[C@]3(C)C(=O)CC[C@@H]23)[C@@]2(C)C=CC(=O)C=C12 [Exemestane] | 5.08 |

| Compound | inhibition at 20 µM [%] |
| --- | --- |
| O=c1[nH]c(=O)n([C@H]2C[C@H](O)[C@@H](CO)O2)cc1F [Floxuridine] | 23.2 |
| NCC(=O)CCC(=O)O [Aminolevulinic acid hydrochloride] | 3.76 |
| CC(=O)O[C@]1(C(C)=O)CC[C@H]2[C@@H]3C=C(C)C4=CC(=O)CC[C@]4(C)[C@H]3CC[C@@]21C [Megestrol-acetate] | 1.49 |
| C[C@]12CC[C@@H]3c4ccc(OC(=O)N(CCCl)CCCl)cc4CC[C@H]3[C@@H]1CC[C@@H]2OP(=O)(O)O [Estramustine phosphate sodium] | -4.58 |
| Cc1ccc(-c2cc(C(F)(F)F)nn2-c2ccc(S(N)(=O)=O)cc2)cc1 [Celecoxib] | 0.37 |
| COC(=O)C[C@](O)(CCCC(C)(C)O)C(=O)O[C@@H]1C(OC)=C[C@]23CCCN2CCc2cc4c(cc2[C@H]13)OCO4 [Omacetaxine-mepesuccinate] | 79.8 |
| CN(C)c1nc(N(C)C)nc(N(C)C)n1 [Altretamine] | 2.67 |
| CO[C@H]1C[C@@H]2CC[C@@H](C)[C@@](O)(O2)C(=O)C(=O)N2CCCC[C@H]2C(=O)O[C@H]([C@H](C)C[C@@H]2CC[C@@H](OCCO)[C@H](OC)C2)CC(=O)[C@H](C)/C=C(\C)[C@@H](O)[C@@H](OC)C(=O)[C@H](C)C[C@H](C)/C=C/C=C/C=C/1C [Everolimus, 42-O-(2-Hydroxyethyl)-rapamycin] | 39.8 |
| CO[C@H]1C[C@@H]2CC[C@@H](C)[C@@](O)(O2)C(=O)C(=O)N2CCCC[C@H]2C(=O)O[C@H]([C@H](C)C[C@@H]2CC[C@@H](O)[C@H](OC)C2)CC(=O)[C@H](C)/C=C(\C)[C@@H](O)[C@@H](OC)C(=O)[C@H](C)C[C@H](C)/C=C/C=C/C=C/1C [Sirolimus, Rapamycin] | 43.1 |
| COc1cccc2c1C(=O)c1c(O)c3c(c(O)c1C2=O)C[C@@](O)(C(C)=O)C[C@@H]3O[C@H]1C[C@H](N)[C@H](O)[C@H](C)O1 [Daunorubicin hydrochloride] | 76 |
| CS(=O)(=O)CCNCc1ccc(-c2ccc3ncnc(Nc4ccc(OCc5cccc(F)c5)c(Cl)c4)c3c2)o1 [Lapatinib] | -2.48 |
| COc1cc([C@@H]2c3cc4c(cc3[C@@H](O[C@@H]3O[C@@H]5CO[C@@H](c6cccs6)O[C@H]5[C@H](O)[C@H]3O)[C@H]3COC(=O)[C@H]23)OCO4)cc(OC)c1O [Teniposide] | 60 |
| Nc1nc(Cl)nc2c1ncn2[C@H]1C[C@H](O)[C@@H](CO)O1 [Cladribine] | 57 |
| Nc1cccc2c1C(=O)N(C1CCC(=O)NC1=O)C2=O (centres unmarked) [Pomalidomide] | 5.37 |
| C#Cc1cccc(Nc2ncnc3cc(OCCOC)c(OCCOC)cc23)c1 [Erlotinib hydrochloride] | 35.3 |
| Nc1nc(F)nc2c1ncn2[C@@H]1O[C@H](COP(=O)(O)O)[C@@H](O)[C@@H]1O [Fludarabine phosphate] | 0.14 |
| CCCS(=O)(=O)Nc1ccc(F)c(C(=O)c2c[nH]c3ncc(-c4ccc(Cl)cc4)cc23)c1F [Vemurafenib] | -8.56 |
| CN(N=O)C(=O)N[C@@H](C=O)[C@@H](O)[C@H](O)[C@H](O)CO [Streptozocin] | -5.23 |
| C=CC(=O)N1CCC[C@@H](n2nc(-c3ccc(Oc4ccccc4)cc3)c3c(N)ncnc32)C1 [Ibrutinib] | 31.6 |
| Nc1ccn([C@@H]2O[C@H](CO)[C@@H](O)C2(F)F)c(=O)n1 [Gemcitabine hydrochloride] | 50.7 |
| COc1cc([C@@H]2c3cc4c(cc3[C@@H](O[C@@H]3O[C@@H]5CO[C@@H](C)O[C@H]5[C@H](O)[C@H]3O)[C@H]3COC(=O)[C@H]23)OCO4)cc(OC)c1O [Etoposide] | 48 |
| O=C(O)CCCc1ccc(N(CCCl)CCCl)cc1 [Chlorambucil] | 22 |

Same assay, conditions: Homo sapiens, read-out: IC50 HUVEC

| Compound | IC50 [µM] |
| --- | --- |
| CNC(=O)c1cc(Oc2ccc(NC(=O)Nc3ccc(Cl)c(C(F)(F)F)c3)cc2)ccn1 [Sorafenib] | 6.84 ± 2.23 |
| CO[C@H]1C[C@@H]2CC[C@@H](C)[C@@](O)(O2)C(=O)C(=O)N2CCCC[C@H]2C(=O)O[C@H]([C@H](C)C[C@@H]2CC[C@@H](OCCO)[C@H](OC)C2)CC(=O)[C@H](C)/C=C(\C)[C@@H](O)[C@@H](OC)C(=O)[C@H](C)C[C@H](C)/C=C/C=C/C=C/1C [Everolimus, 42-O-(2-Hydroxyethyl)-rapamycin] | < 0.03 |
| CO[C@H]1C[C@@H]2CC[C@@H](C)[C@@](O)(O2)C(=O)C(=O)N2CCCC[C@H]2C(=O)O[C@H]([C@H](C)C[C@@H]2CC[C@@H](O)[C@H](OC)C2)CC(=O)[C@H](C)/C=C(\C)[C@@H](O)[C@@H](OC)C(=O)[C@H](C)C[C@H](C)/C=C/C=C/C=C/1C [Sirolimus, Rapamycin] | < 0.03 |
